# The source holds several records for some structures; these can differ, active in one and inactive in another. How the source made its calls: active means hit-call score of the fitted dose curve at least 0.9, where 1 is the maximum; inactive means score below 0.9. Not every entry of the source has a single result; some have several. This list holds those alone. There may be further records. Values that stand side by side are repeats in other runs, samples, wells, individuals or studies.
# How the values were obtained:
# [1] = ATG_EGR_CIS: Attagene CIS-FACTORIAL HepG2 Assay for human Early Growth Response 1 (EGR1) (AID 2282938); conditions: HepG2 Attagene CIS-FACTORIAL EGR reporter mRNA; actives raise or lower the signal
# Procedure, shortened: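 Endogenous TF activity in HepG2 liver cells was gauged through cis-promoter reporter constructs transiently transfected. After 24 h dosing, reporter mRNA was quantified by RT-PCR and capillary electrophoresis, and curves fitted in both directions versus DMSO.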
# [2] = target: Paired box protein Pax-6 (Homo sapiens) (UniProt P26367); experiment: ATG_Pax6_CIS: Attagene CIS-FACTORIAL HepG2 Assay for human Paired Box 6 (PAX6) (AID 2282956); conditions: HepG2 CIS-FACTORIAL PAX6 reporter transcription, RNA readout; actives raise or lower the signal
# Sequence of UniProt P26367 (P26367 whole entry, looked up): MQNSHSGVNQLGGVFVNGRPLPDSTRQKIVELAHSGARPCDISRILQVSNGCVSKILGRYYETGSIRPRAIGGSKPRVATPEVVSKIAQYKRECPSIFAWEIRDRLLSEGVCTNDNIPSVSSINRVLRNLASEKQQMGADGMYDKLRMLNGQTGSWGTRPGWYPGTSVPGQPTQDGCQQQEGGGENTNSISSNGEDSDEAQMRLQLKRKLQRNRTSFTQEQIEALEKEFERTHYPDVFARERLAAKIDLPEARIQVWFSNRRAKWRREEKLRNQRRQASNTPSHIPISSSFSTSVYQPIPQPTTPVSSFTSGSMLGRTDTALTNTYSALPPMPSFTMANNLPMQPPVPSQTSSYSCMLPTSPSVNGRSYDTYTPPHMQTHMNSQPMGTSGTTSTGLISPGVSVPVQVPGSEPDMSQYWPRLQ
# Procedure, shortened: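 Readout: reporter transcript fluorescence after RT-PCR and capillary electrophoresis. Cells: HepG2, transiently transfected with cis-regulated MRTUs. Exposure 24 h. Gain or loss of signal fitted bidirectionally relative to DMSO.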
# [3] = ATG_SREBP_CIS: Attagene CIS-FACTORIAL HepG2 Assay for human Sterol Regulatory Element Binding (SREBP) (AID 2282962); conditions: HepG2 Attagene cis-factorial SREBP reporter, mRNA; actives raise or lower the signal
# Procedure, shortened: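 Readout: fluorescent reporter-transcript peaks resolved by capillary electrophoresis after RT-PCR. Cells were human HepG2 carrying transfected cis-promoter reporter constructs, dosed for 24 h. Gain or loss of signal was fitted against DMSO controls.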
smiles,measurement,setting,value
C#C[C@]1(O)CC[C@H]2[C@@H]3CCc4cc(O)ccc4[C@H]3CC[C@@]21C,AC50,[1],"active: 30.1, 100, 27.1, 35.1 µM [separate samples]"
same,AC50,[2],"active: 32.3, 100, 27.4, 27.6 µM [separate samples]"
same,AC50,[3],"active: 43.3, 65.9, 9.14, 26.6 µM [separate samples]"

# Reference: PubChem BioAssay (EPA / NIEHS)
